# In US11285169B2, “Methods for modulating chemotherapeutic cytotoxicity” (The United States of America, as represented by the …, priority 2013, dated 2022):
# Where a name gives a salt, the structure may show the parent alone. Read-outs that look alike come from different tables or passages of the source.
# Assays:
# [1] = system: CD47 deficient (CD47 KO) Jurkat T cells; conditions: for Δ LogAC50 CD47KO-WT: log AC50 difference CD47 KO minus WT; for AC50: read-out: AC50 (μM) CD47 KO, cell viability
# WT Jurkat cells = conditions: for AC50: read-out: AC50 (μM) WT, cell viability
# [2] = CD47 KO Jurkat T cells, 48 hours, 10^-9 to 10^-4 M, CellTiter-Glo
# [3] = WT Jurkat cells, 48 hours, 10^-9 to 10^-4 M, CellTiter-Glo
# [4] = difference CD47 KO minus WT Jurkat cells, 48 hours
# [5] = CD47 KO Jurkat T cells, 48 hours
SMILES,"Maximal Response CD47 KO (RLU) [1, 2] [RLU]",Maximal Response WT (RLU) (WT Jurkat cells; [3]),"Δ Maximal Response CD47KO-WT [1, 4]",other results
C[C@]12CCC(=O)C=C1CC[C@@H]1[C@@H]2CC[C@@]2(C)[C@H]1CC[C@]2(C)O [Methyltestosterone],,,,Maximal Response CD47 KO (RLU) [1]: 45.934 RLU; Maximal Response WT (RLU) (WT Jurkat cells): 19.391 RLU
CC#C[C@]1(O)CC[C@H]2[C@@H]3CCC4=CC(=O)CCC4=C3[C@@H](c3ccc(N(C)C)cc3)C[C@@]21C [Mifepristone],38.548,7.203,,
CNC(=O)c1nn(C)c2c1C(C)(C)Cc1cnc(Nc3ccc(N4CCN(C)CC4)cc3)nc1-2 [Milciclib],34.643,3.772,,
CN(C)c1ccc(O)c2c1C[C@H]1C[C@H]3[C@H](N(C)C)C(O)=C(C(N)=O)C(=O)[C@@]3(O)C(O)=C1C2=O [Minocycline],52.108,7.169,,
CO[C@@]12[C@H](COC(N)=O)C3=C(C(=O)C(C)=C(N)C3=O)N1C[C@@H]1N[C@@H]12 [Mitomycin],25.245,1.358,,
CN(c1nccc(=O)[nH]1)C1CCN(c2nc3ccccc3n2Cc2ccc(F)cc2)CC1 [Mizolastine],89.324,60.168,,
CCOC(=O)C1=C(C)NC(=S)NC1c1cccc(O)c1 (centres unmarked) [Monastrol],69.287,32.433,,
CC1(C)CNc2cc(NC(=O)c3cccnc3NCc3ccncc3)ccc21 [Motesanib],68.692,21.286,,
COc1nc(C)nc(Cl)c1N=C1NCCN1 [Moxonidine hydrochloride hydrate],66.695,34.088,,
COc1c(C)c2c(c(O)c1C/C=C(\C)CCC(=O)OCCN1CCOCC1)C(=O)OC2 [Mycophenolate mofetil],71.329,19.156,,
COc1c(C)c2c(c(O)c1C/C=C(\C)CCC(=O)O)C(=O)OC2 [Mycophenolic acid],58.678,19.34,,
CN(C)CCCNC(=O)c1ccc(-c2cc(O)c3ncccc3c2)cc1 [NCGC00183808-01],74.518,35.566,38.952,
O=C(O)c1ccc(O)c2ncc(N3CCOCC3)cc12 [NCGC00241036-01],73.954,46.14,27.814,
Clc1ccc2ncc(-c3cccc(NC4CNC4)n3)n2c1 [NCGC00241410-01],41.906,11.766,30.14,
C[C@H](NCc1ccc2c(c1)nc(NC(=O)c1ccc(-c3cn[nH]c3)s1)n2CCc1ccccc1)C(C)(C)C [NCGC00344999-01],,,,"Δ LogAC50 CD47KO-WT [1]: 1.3; AC50 [1, 5]: 2.64 µM; AC50 (WT Jurkat cells; WT Jurkat cells, 48 hours): 0.132 µM"
C/C(=N\NC(=S)N1CCC1)c1ccccn1 [NSC319726],,,,Maximal Response CD47 KO (RLU) [1]: 47.192 RLU; Δ Maximal Response CD47KO-WT [1]: 37.314; Maximal Response WT (RLU) (WT Jurkat cells): 9.878 RLU
Nc1nc(=O)n([C@H]2C[C@H](O)[C@@H](CO)O2)cc1F [NSC-48006],46.143,20.924,25.219,
Cn1cc(-c2ccc3ncc(Cc4ccc5ncccc5c4)n3n2)cn1 [NVP-BVU-972],80.831,49.524,31.307,
CC(C)[C@H]1CC[C@H](C(=O)N[C@H](Cc2ccccc2)C(=O)O)CC1 [Nateglinide],111.519,76.528,,
COc1ccc(CCC(=O)c2c(O)cc(O[C@@H]3O[C@H](CO)[C@@H](O)[C@H](O)[C@H]3O[C@@H]3O[C@@H](C)[C@H](O)[C@@H](O)[C@H]3O)cc2O)cc1O [Neohesperidin dihydrochalcone],31.011,9.336,,
COc1ccc2c(c1OC)C(=O)O[C@@H]2[C@H]1c2c(cc3c(c2OC)OCO3)CCN1C [Noscapine],38.52,10.875,,
COc1ccc(C2=N[C@@H](c3ccc(Cl)cc3)[C@@H](c3ccc(Cl)cc3)N2C(=O)N2CCNC(=O)C2)c(OC(C)C)c1 [Nutlin-3],,,,Maximal Response CD47 KO (RLU) [1]: 49.966 RLU; Δ Maximal Response CD47KO-WT [1]: 42.145; Maximal Response WT (RLU) (WT Jurkat cells): 7.821 RLU
O=C(c1cc(Cc2n[nH]c(=O)c3ccccc23)ccc1F)N1CCN(C(=O)C2CC2)CC1 [Olaparib],90.538,63.542,,

SMILES,"Maximal Response CD47 KO (RLU) [1, 2] [RLU]",Maximal Response WT (RLU) (WT Jurkat cells; [3]),"Δ Maximal Response CD47KO-WT [1, 4]",other results
CC1(C)CC[C@]2(C(=O)O)CC[C@]3(C)C(=CC[C@@H]4[C@@]5(C)CC[C@H](O)C(C)(C)[C@@H]5CC[C@]43C)[C@@H]2C1 [Oleanolic acid],56.286,26.521,,
COc1ccc(/C=C\c2cc(OC)c(OC)c(OC)c2)cc1NC(=O)[C@@H](N)CO [Ombrabulin],38.265,9.585,,
COc1ccc2ccc(=O)oc2c1CC=C(C)C [Osthol],60.073,35.688,24.385,
O=C1[O][Pt]2([NH][C@@H]3CCCC[C@H]3[NH]2)[O]C1=O [Oxaliplatin],,,,Maximal Response CD47 KO (RLU) [1]: 109.492 RLU; Δ Maximal Response CD47KO-WT [1]: 60.093; sensitivity of CD47-expressing versus deficient Jurkat T cells ([1]; 48 hours): differing sensitivities; Maximal Response WT (RLU) (WT Jurkat cells): 49.399 RLU
CN(C)[C@@H]1C(O)=C(C(N)=O)C(=O)[C@@]2(O)C(O)=C3C(=O)c4c(O)cccc4[C@@](C)(O)[C@H]3[C@H](O)[C@@H]12 [Oxytetracycline],71.104,40.887,,
C=CCc1cccc(/C=N/NC(=O)CN2CCN(Cc3ccccc3)CC2)c1O [PAC-1],41.834,10.752,31.082,
COc1ccc(Cn2ccc3ccc(C(=O)NO)cc32)cc1 [PCI-34051],,,,Maximal Response CD47 KO (RLU) [1]: 74.801 RLU; Δ Maximal Response CD47KO-WT [1]: 41.078; Maximal Response WT (RLU) (WT Jurkat cells): 33.723 RLU
CCN(CC)CCOc1ccc(Nc2ncc3cc(-c4c(Cl)cccc4Cl)c(=O)n(C)c3n2)cc1 [PD-166285],,,,"Δ LogAC50 CD47KO-WT [1]: 0.9; AC50 [1, 5]: 4.69 µM; AC50 (WT Jurkat cells; WT Jurkat cells, 48 hours): 0.59 µM"
CC(C)[C@H](NS(=O)(=O)c1ccc(-c2ccc(Br)cc2)cc1)C(=O)O [PD-166793],46.846,10.39,36.456,
CSc1cccc(Nc2ncc3cc(-c4c(Cl)cccc4Cl)c(=O)n(C)c3n2)c1 [PD-173955],35.348,8.871,26.477,
O=C(NOCC1CC1)c1ccc(F)c(F)c1Nc1ccc(I)cc1Cl [PD-184352],42.673,14.102,28.571,
C[C@]1(CO)CN(c2cc(C(=O)Nc3ccc4c(c3)-c3c(c(C(N)=O)nn3-c3ccc(F)cc3)CC4)c(Cl)cn2)C[C@@]1(C)CO [PF-184],51.177,15.645,35.532,
CN(c1ccccc1CNc1nc(Nc2ccc3c(c2)CC(=O)N3)ncc1C(F)(F)F)S(C)(=O)=O [PF-431396],40.108,5.036,35.072,
CC(=O)NCC(=O)N1[C@@H]2CC[C@H]1c1ccc(Nc3ncc(C(F)(F)F)c(NC4CCC4)n3)cc12 [PF-03814735],25.285,2.512,22.773,
O=C1NCCc2[nH]c(-c3ccncc3)cc21 [PHA-767491A],50.652,3.817,46.835,
CC(C)CC(=O)Nc1[nH]nc2c1CN(C(=O)C1CCN(C)CC1)C2(C)C [PHA-793887],33.85,1.453,,
Cc1ccccc1-n1c(Cn2ncc3c(N)ncnc32)nc2cccc(C)c2c1=O [PIK-293],50.9,15.445,35.455,
O=C(Nc1cc(Cl)cc2c1[nH]c1cnccc12)c1cccnc1 [PS-1145],97.256,67.733,29.523,
O=C(O)c1cccc(-c2noc(-c3ccccc3F)n2)c1 [PTC-124],109.291,77.858,,
CC(=O)O[C@H]1C(=O)[C@@]2(C)[C@H]([C@H](OC(=O)c3ccccc3)[C@]3(O)C[C@H](OC(=O)[C@H](O)[C@@H](NC(=O)c4ccccc4)c4ccccc4)C(C)=C1C3(C)C)[C@]1(OC(C)=O)CO[C@@H]1C[C@@H]2O [Paclitaxel],55.703,19.451,,
COc1cc([C@@H]2c3cc4c(cc3[C@H](O)[C@H]3COC(=O)[C@@H]23)OCO4)cc(OC)c1OC [Picropodophyllin],37.377,12.497,,
CN1C(C(=O)Nc2ccccn2)=C(O)c2ccccc2S1(=O)=O [Piroxicam],106.754,80.791,,
Cc1cc(Nc2ncc3c(n2)N(C)C(=O)N(c2cc(NC(=O)c4cccc(C(F)(F)F)c4)ccc2C)C3)n(C)n1 [Pluripotin],,,,Maximal Response CD47 KO (RLU) [1]: 85.4 RLU; Δ Maximal Response CD47KO-WT [1]: 26.442; Maximal Response WT (RLU) (WT Jurkat cells): 58.958 RLU
